# Assay results published in article PMC6919601, “Identification of Plasmodium dipeptidyl aminopeptidase allosteric inhibitors by high throughput screening” (PLoS ONE, 2019).
# Where “and” joins values, the source holds several entries; their conditions need not be identical. Equal entries are not always repeated. In all, about 110,000 compounds went through this assay and about 230 (0.21%) showed an effect of 50% or more. The list shows a part of the results.
# Target: DPAP1 (Plasmodium falciparum, UniProt Q8IIJ9)
# Sequence (Q8IIJ9 whole entry, looked up): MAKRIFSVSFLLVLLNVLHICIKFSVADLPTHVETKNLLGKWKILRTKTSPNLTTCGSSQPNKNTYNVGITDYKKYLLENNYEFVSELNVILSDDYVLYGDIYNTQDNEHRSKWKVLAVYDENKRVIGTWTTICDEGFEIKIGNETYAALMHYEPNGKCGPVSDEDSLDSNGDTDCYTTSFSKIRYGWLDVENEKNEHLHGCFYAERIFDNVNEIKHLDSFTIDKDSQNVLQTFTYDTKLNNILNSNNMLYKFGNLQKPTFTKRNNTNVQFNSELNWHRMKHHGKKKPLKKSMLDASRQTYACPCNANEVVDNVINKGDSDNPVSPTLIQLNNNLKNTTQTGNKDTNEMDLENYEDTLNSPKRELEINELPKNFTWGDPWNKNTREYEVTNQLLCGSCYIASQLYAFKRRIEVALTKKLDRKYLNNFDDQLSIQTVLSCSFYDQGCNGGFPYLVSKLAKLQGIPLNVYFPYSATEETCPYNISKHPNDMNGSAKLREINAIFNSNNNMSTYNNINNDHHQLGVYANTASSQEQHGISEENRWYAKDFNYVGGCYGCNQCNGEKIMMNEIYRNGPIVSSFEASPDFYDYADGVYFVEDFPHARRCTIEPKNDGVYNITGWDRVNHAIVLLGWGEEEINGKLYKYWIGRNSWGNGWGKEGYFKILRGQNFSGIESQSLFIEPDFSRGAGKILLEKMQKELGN
# Test: primary screen, percent inhibition; read by cleavage of a fluorogenic dipeptide substrate; higher = more effect of the substance
# Design: species or system P. falciparum D10 trophozoite lysates; single well
# 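Further: 30 min substrate incubation versus DMSO and 10 µM JCP410 controls.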
row,SMILES,% Inhibition @ 10 uM
1,CCOc1ccccc1CNCc1c(C(=O)O)n(Cc2ccccc2F)c2cc(OC)ccc12,-0.517%
2,Cn1c(=O)c2c(n(C)c1=O)[n+](C)cn2CC(=O)c1ccccc1,-2.86%
3,Cc1nc2n(C)nc(Nc3ccccc3)[n+]2c2ccccc12,-4.52%
4,CCOc1ccccc1-c1cn2nc(CC(C)C)sc2n1,5.35%
5,Cc1cccc(CSC[C@H](NC(=O)c2ccccc2)C(=O)NCC#N)c1,-5.21%
6,CCOC(=O)c1[nH]c(C#N)c(C(=O)OCC)c1C,4.15%
7,Clc1cccc(N2CCN(Cc3cc(Br)cs3)CC2)c1,4.04%
8,COc1cccc(C(C(F)(F)F)P(C)(=O)O)c1 (centres unmarked),4.1%
9,Cc1nc2c(-c3ccc(F)cc3)c(C)nn2c(C)c1CCC(=O)NCCC1=CCCCC1,2.93%
10,COc1ccc(CN2C(=O)CSC2c2ccc3cccc(O)c3n2)cc1 (centres unmarked),-3.95%
11,CN1CCc2cc(CO)sc2C1,1.77%
12,N#CCc1ccc(NC(=O)c2ccncc2)cc1,-6.92%
13,C=CCOc1ccccc1CNc1ccc(C)cc1,1.08%
14,COc1ccc(N2C(=O)CC(N(CCc3ccccc3)C(C)=O)C2=O)cc1 (centres unmarked),-12.1%
15,NC(=O)C1CCN(C(=O)C2=Cc3sc4c(c3CS2)CCCC4)CC1,0.942%
16,C/C(=N/O)c1ccc(OCCO)cc1,0.035%
17,Oc1ccc2ccccc2c1/C=N/c1cccn2cc(-c3ccccc3)nc12,-2.98%
18,CCCCNc1ncnc2c1cnn2C,2.88%
19,CC(C)(C)c1ccc2[nH]c3c(c2c1)CCCC3=O,-0.13%
20,CCOC(=O)C1=C(O)/C(=C/c2cccnc2)N=C1C,-3.41%
21,COc1ccc(C2c3c(oc4ccccc4c3=O)C(=O)N2c2nnc(C(C)C)s2)cc1 (centres unmarked),-4%
22,COc1ccc(CCN(C(C)=O)C2CC(=O)N(c3ccc(OC)cc3)C2=O)cc1 (centres unmarked),5.41%
23,O=C(/C=C/c1ccccc1)Nc1cccc2ccccc12,1.7%
24,CCC(=O)OC1(c2ccccc2)CCN(C)C(C)C1 (centres unmarked),-2.56%
25,O=C(CC1CC2CCC1C2)NCc1ccccc1C(F)(F)F (centres unmarked),-5.03%

row,SMILES,% Inhibition @ 10 uM
1,CCCN1CCC(N2C[C@@H]3C[C@H](C2)c2cccc(=O)n2C3)CC1,-1.85%
2,COc1ccc(NC(=O)CSc2nc(C)cc(O)n2)cc1,-0.231%
3,Cc1ccc(/C=C/C2=NC(=C\c3ccc(F)cc3)/C(=O)O2)cc1,3.74%
4,CSC1=NSC2=NC(=O)/C(=C\c3c(C)[nH]c4ccc(C)cc34)C(=N)N12,1.07%
5,Cc1nn(C(C)C(=O)NCCCOC(C)C)c(=O)c2cc3sccc3n12 (centres unmarked),-1.58%
6,CCN(CC)c1ccc(/C=C2\C(=O)N(c3ccc(C)cc3)N=C2C)cc1,-7.11%
7,COc1cccc(CN2CCN(C3CCCCC3C)CC2)c1OC (centres unmarked),-6.39%
8,CC1=C(CCN(C)CC(O)c2ccccc2)C(C)(C)CCC1 (centres unmarked),2.1%
9,CCc1nnc(NC(=O)CSc2nnc(CNC(=O)c3cc(OC)c(OC)c(OC)c3)o2)s1,-3.39%
10,N#CCNC(=O)C1CCCCN1c1cccc(-c2cccc(F)c2F)c1 (centres unmarked),0.173%
11,CCc1ccccc1NC(=O)c1cccs1,-0.197%
12,Cc1nn2c(C(F)(F)F)cc(-c3ccc(Cl)cc3)nc2c1C(=O)N1CCN(C)CC1,-1.36%
13,Cc1ccc(S(=O)(=O)c2nc(-c3ccc(F)cc3)oc2S(=O)(=O)C(C)C)cc1,-1.22%
14,COc1ccc(-c2csc(-c3nc(-c4ccc(OC)cc4)cs3)n2)cc1,-7.01%
15,Cc1cc(C)nc(SCc2cccc3ccccc23)n1,5.42%
16,COc1cc2c(cc1OC)C(c1ccccc1Cl)NC(=O)C2 (centres unmarked),-0.436%
17,CCCCCCCOc1ccc(-c2ccc(C(=N)NO)cc2)cc1,1.41%
18,CCN1CCCC1CNC(=O)C(NC(=O)C1CCC(C)CC1)C(C)C (centres unmarked),-4.06%
19,Clc1ccccc1/C=N/OCc1nc2c3c4c(sc3ncn2n1)CCCCC4,3.43%
20,CCCCc1ccc(-c2nc(NC(=O)C3C4CCC(O4)C3C(=O)O)sc2C)cc1 (centres unmarked),0.76%
21,Cc1[nH]nc2c1C1(C(=O)N(Cc3ccc(Cl)cc3)c3ccccc31)C(C#N)=C(N)O2 (centres unmarked),5.05%
22,CCN(CC)CCN(C)CC1CCCCC1,1.74%
23,COC(=O)C1=CN(Cc2ccc(Cl)cc2)C=C(C(=O)OC)C1c1ccc(Br)cc1,3.45%
24,O=C(COc1ccc(S(=O)(=O)NC2CCCCC2)cc1)Nc1cccc(F)c1,1.88%
25,COc1ccccc1-c1scc(C(=O)N[C@@H](CC(C)C)C(=O)NCC#N)c1OC,-8.26%

row,SMILES,% Inhibition @ 10 uM
1,CCCC(=O)NCc1nc2ccccc2n1Cc1ccccc1C,-0.228%
2,Cc1c(C(c2ccc3ccccc3c2)c2c(C)n(C)n(-c3ccccc3)c2=O)c(=O)n(-c2ccccc2)n1C,7.81%
3,CC1(C)C(c2ccc(F)cc2)=[N+]([O-])C(C)(C)C(c2ccc(F)cc2)=[N+]1[O-],-5.74%
4,CCOc1ccccc1NC(=O)C1=C(C)NC(=O)NC1c1ccccc1F (centres unmarked),-0.69%
5,Cc1ccc(NC(=O)Nc2ccccc2C(C)(C)C)cc1,-5.12%
6,C=CCN1C(=O)/C(=C\c2ccc(C(=O)O)cc2)C(C(=O)OC)=C1C,0.0538% and -1.6%
7,COc1cccc(CCN2CCC(CNS(=O)(=O)c3ccc(-c4ccc(O)nn4)s3)CC2)c1,0.92%
8,CC1=NN(C(=O)c2ccc(COc3ccc(F)cc3)o2)C(O)(C(F)(F)F)C1 (centres unmarked),3.21%
9,Cc1cc(C)c(S(=O)(=O)NCCN2CCN(S(=O)(=O)c3cc(C)c(C)cc3C)CC2)cc1C,-2.03%
10,CC(C)C[C@H](NC(=O)c1ccc(-c2cnc(Nc3cccnc3)s2)cc1)C(=O)NCCN(CC(C)C)CC(C)C,-3.97%
11,Cc1cccc(-c2nc(CS(=O)CC(=O)N3CCc4ccccc4C3)c(C)o2)c1 (centres unmarked),-1.05%
12,Cc1nc2c(C(=O)NCc3ccco3)cnn2c(O)c1Cl,-3.94%
13,Nc1nc(COc2ccc3ccccc3c2)cs1,-1.38%
14,CCOC(=O)C1=CN(C)C=C(C(=O)OCC)C1c1ccc(OC(F)(F)F)cc1,-5.05%
15,OC1CC(c2ccccc2)OC12CCCCC2 (centres unmarked),4.12%
16,COc1ccc(C2=NN(C(=O)CSC3=NCCS3)C(c3ccc(F)cc3)C2)cc1 (centres unmarked),0.279%
17,CC1=C(C(=O)OCCOc2ccccc2)C(c2ccccc2OC(C)C)C2=C(O)CCCC2=N1 (centres unmarked),5.94%
18,Cc1ccccc1CN1CCN(c2ccccn2)CC1,3%
19,COc1ccc(N2C(=O)C3C(c4ccc(C)cc4)OC4(C(=O)c5ccccc5C4=O)C3C2=O)cc1 (centres unmarked),-2.32%
20,Cc1nc2ccccc2c(=O)n1-c1cc(C(F)(F)F)ccc1Cl,1.61%
21,CN1CCN(Cc2nnc(S)n2-c2ccc3ccccc3c2)CC1,4.17%
22,CCOC(=O)N1CCC(NC(=O)C2CCN(S(=O)(=O)c3cccc4nsnc34)CC2)CC1,-5.22%
23,Cc1cc(C)n(CCc2nc3ccccc3[nH]2)n1,0.219%
24,COc1ccc(NS(=O)(=O)c2ccc(OC)c(OC)c2)cc1OC,-5.07%
25,Cc1ccc(CCNC(=O)c2nnn(-c3cc(C)cc(C)c3)c2N)cc1,-0.112%

row,SMILES,% Inhibition @ 10 uM
1,COc1cccc(C2C3=C(O)CC(c4ccccc4)CC3=NC(C)=C2C(=O)Nc2ccccn2)c1 (centres unmarked),-4.65%
2,Cc1ccc(-c2cn3c(n2)sc2cc(C(=O)NCC4CCCO4)ccc23)c(C)c1 (centres unmarked),4.85%
3,Oc1c(O)c(CN2CCCCC2)c2ccccc2c1CN1CCCCC1,-3.5%
4,CSc1ccc(C2C3=C(O)CCCC3=NC(C)=C2C(=O)N2CCCCC2)cc1 (centres unmarked),-1.48%
5,COc1ccc(OC)c(NC(=O)CCCOc2ccc(Cl)cc2Cl)c1,0.755%
6,CCOc1ccc(C2=CC(c3cccc(OC)c3OC)n3ncnc3N2)cc1Cl (centres unmarked),-1.62%
7,COc1ccccc1N(CC(=O)N1CCCCCC1)S(C)(=O)=O,0.755%
8,Cc1ccc(S(=O)(=O)c2ccccc2)cc1S(=O)(=O)Nc1cccc(C(=O)O)c1,-0.216%
9,Cc1cccc2c1CC(C)(C)NC2=C1C(=O)CC(C)(C)CC1=O,-9.11%
10,C=CCOC(=O)c1cc(-c2ccc(/C=N/n3nnnc3N)o2)ccc1Cl,13.2%
11,COc1ccc(NC(=O)CN(c2cccc(Cl)c2)S(=O)(=O)c2ccccc2)cc1OC,-3.39%
12,Cc1cccc(CSCc2ccc(C(=O)NC(C)C)o2)c1,-1.79%
13,NC(=O)c1cc(S(=O)(=O)NCC2CCCO2)cs1 (centres unmarked),0.304%
14,O=C(c1cn(Cc2ccc(F)cc2)c2ccccc12)C1CC1,-8.42%
15,CCSc1ncc(Cl)c(C(=O)N(Cc2ccc(Cl)cc2)Cc2ccco2)n1,2.19%
16,Cc1cc(C(=O)CN2CCOCC2)c(C)n1-c1ccc(Cl)c(Cl)c1,-7.96%
17,COc1cccc(-c2noc(-c3ccccn3)n2)c1,-5.21%
18,CCCc1cc(=O)oc2c3c(ccc12)OCN(Cc1ccc(F)cc1)C3,3.81%
19,Cc1ccc(S(=O)(=O)NCc2ccc(C(=O)N3CCC(Cc4ccccc4)CC3)cc2)cc1,0.208%
20,CC[C@H](NC(=O)[C@H](CS(=O)(=O)Cc1ccccc1OC(F)F)/N=C(\C)NS(=O)(=O)c1cccnc1)C(=O)c1nc2ccccc2o1,-3.14%
21,CCOc1ccc(-c2cc(N)c(C(=O)OC)s2)cc1,1.22%
22,CCOc1ccc(/C=C/C2=CC(C)(C)NC(S)=N2)cc1,1.64%
23,C/C(=C(/NC(=O)c1ccccc1)C(=O)O)c1ccc(Cl)cc1,2.5%
